Source: the supplement of paper PMC11417369
± gives the standard deviation of the averaged measurements. The list shows a part of the results.

test system: PfAP2-I AP2 domain 3 (GST-tagged); experiment: gcPBM binding intensity (ln(normalized median fluorescence intensity)); higher = stronger DNA binding
In short: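 DNA-binding domains from P. falciparum, fused to GST and produced in E. coli, were put on an Agilent 4 × 180k double-stranded probe array for 1 h in 1× PBS holding 1% milk, 0.2 mg/ml BSA, 0.5% salmon testes DNA and 0.03% Triton X-100. Probes were primer-extended, 36 bp long and drawn from intergenic genomic regions, with negative controls included. After Alexa488 anti-GST antibody detection and a 488 nm scan, binding intensity was set as the highest Masliner-normalised natural-log median intensity across replicate spots of either probe orientation.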

Sequence | gcPBM binding intensity (ln)
TGTTTTATTTTATTAGTGCATTTTTATTTATAATAG [GTGCAC_site9453] | 9.77 ± 0.2
TTAAAAAAAAAACACACACACATACACATATATATA [CACACA_site3299] | 8.31 ± 0.64
TTTTTATATTTTTGCACACATTCTTTACTCTTCAAA [CACACA_site2210] | 9.87 ± 0.12
TATATATATGGACACACACACATATAAATAAATAAA [CACACA_site4406] | 8.01 ± 0.69
ATAATTAATAAATAATGTACATATATATTATATTTT [XGTACX_site8546] | 7.55 ± 0.43
TGTGAAGTACCGAATGTGCACTGTGTGTGTTCTTTT [GTGCAC_site9613] | 10.12 ± 0.014
TTTTTTTTTTTTTTTTTTTCTATTTTACTGTTTCGT [CACACA_negctrl_site850] | 8.02 ± 0.4
TTACCGTAAAAATTTTGTACATAAAATAATATATAA [XGTACX_site532] | 7.92 ± 0.35
GATATAAAATATTGGTGTACTTTTTTTTTTTTTTTT [XGTACX_site7174] | 8.76 ± 0.4
GTATGTGTGTCAAGTCGTACTTACCTTTAAATTTTT [XGTACX_site2507] | 8.08 ± 0.55
CACATACATATATATACACACAAATATATATACACA [CACACA_site8164] | 7.88 ± 0.42
ACCATGAAAATATTATGTACATATGTATTATATATA [XGTACX_site408] | 7.79 ± 0.35
GAGTGAGCTAATAAAAGTACGTAATAAACAAACGCA [XGTACX_site131] | 7.81 ± 0.65
ATAGCTGTATTTAATACACACAAAACTTTCATTCCA [CACACA_site5868] | 7.95 ± 0.51
TTTTTTTGTTTTGTTTTTTTTTTTTTTTTTTTTTTG [CACACA_negctrl_site570] | 7.39 ± 0.58
TGCTTAATTTACGTGGGTACATACACCTCATATATT [XGTACX_site3093] | 8.28 ± 0.82
ATATATGTATATTTTTGTACGCATAAATATATTTTT [XGTACX_site827] | 7.8 ± 0.21
TTTTTATACAATTAGACACACACAAAAAGTATATAT [CACACA_site8272] | 7.78 ± 0.64
TTAATACATATATATATATTATATATATATATATAT [TGCATGCA_negctrl_site177] | 9.12 ± 0.43
ATTATTTTAATTTTAATTTTTTTTTTTTTTTGTTTT [CACACA_negctrl_site1063] | 7.34 ± 0.49
TATTTTTCCATAAAAATTTATATAGAAACAAATAAT [GTGCAC_negctrl_site103] | 7.75 ± 0.46
CCCTTTTATTAAAATTCACACACATAAATTTTTATA [CACACA_site8611] | 8.06 ± 0.41
TACTATAAGATATATACACACAAGAAATACAAAACG [CACACA_site6764] | 8.13 ± 0.76

Sequence | gcPBM binding intensity (ln)
GAATATGAATATTTGCGTACTTATATAACTGTTCTA [XGTACX_site883] | 7.69 ± 0.49
AAAAAAAATAATAATACACACAATATGATATGTACA [CACACA_site850] | 7.58 ± 0.35
ATACACATTCGAAATAACAAAAAAATACATACACAT [GTGCAC_negctrl_site628] | 8.02 ± 0.66
ATGATTATTTTAAAAAGTACTAATTATTATTTTTTT [XGTACX_site7242] | 7.6 ± 0.35
ATGATAGTATGTATGAGTACGAAAAAAAAAAATTAA [XGTACX_site32] | 7.77 ± 0.64
ATATATATATATATTGTACACACATTTATGCATATA [CACACA_site9055] | 9.4 ± 0.18
TGTGGGAATAACCACACACACACACCCATATATATA [CACACA_site5876] | 8.29 ± 0.71
AAATGCAAATGATGATGTACATACAAAAATTAAATT [XGTACX_site5323] | 8.15 ± 0.64
ATATATATATATATATGTACATATCACTTTAAATAT [XGTACX_site3859] | 9.04 ± 0.24
TTTTCTTAAAAAATCAAACACACATATATATATACA [CACACA_site2297] | 7.6 ± 0.51
AAAATGTATATATAAACATGCACACGTGGTTGTATA [TGCATGCA_site847] | 8.4 ± 0.54
TATCGTTATATAATATGTACATATAAAATTTAAATT [XGTACX_site1887] | 7.99 ± 0.5
TCTTAAATTTCTTTATGTACATAATTAATATATTTA [XGTACX_site4456] | 7.72 ± 0.35
TATATATTATGACCACCACACACCTATACGCATAAC [CACACA_site2447] | 8.3 ± 0.45
AAAAATATATAAAGAAAAAGAATATAATATAAAATA [GTGCAC_negctrl_site208] | 7.66 ± 0.49
ATTGTAGAATTTAATAGTACTCACGAATAAAATAAA [XGTACX_site6280] | 7.7 ± 0.42
AAAAAAAAAGTATTATGTACATAAAAATAAAAAAAT [XGTACX_site4166] | 7.87 ± 0.66
GTTTATGTTAAACCATGTACTTAATATTTTATTCTT [XGTACX_site3761] | 7.67 ± 0.67
TATTAAAATATGTCAGTTCTTAAAAAGTTGATGAGT [GTGCAC_negctrl_site77] | 7.63 ± 0.58
TATGATTCATAATAGTGTACGTAAAAATTGACTAGA [XGTACX_site5376] | 8.22 ± 0.26
TATAATATGAACAGTACACACAAAATAAATTCGTAT [CACACA_site3586] | 7.81 ± 0.51
ATTCAAAATAATAGAATTGTTAAAGTTGTAAATTGA [CACACA_negctrl_site727] | 7.53 ± 0.36
AAAAATAAATATACATGTACTTAAAATAATCGAATA [XGTACX_site8432] | 7.67 ± 0.39

Sequence | gcPBM binding intensity (ln)
TATATTTTTATATTTTGTACATATAGTAAATATAAA [XGTACX_site4768] | 7.59 ± 0.34
CTCAAACAATATTATATAATAAAGTACATATATATT [CACACA_negctrl_site446] | 7.66 ± 0.42
GAACAGAAAAAGAATAGTACATATATATATATATAT [XGTACX_site3700] | 9.35 ± 0.55
ACGTATCAAAAAATTTGTACATATATATATATATAT [XGTACX_site1024] | 9.51 ± 0.4
AAAACATACAGATATACACACATATATATATATATA [CACACA_site5091] | 9.29 ± 0.4
ATATTTAAACGATGGTGTACATATATTACAAGTTGT [XGTACX_site1743] | 8.15 ± 0.64
ATATAGATCTACACTGCACACATTTTTAACACTGCT [CACACA_site1882] | 9.04 ± 0.5
TATACATATATATATACACACATATATATATATACA [CACACA_site402] | 7.66 ± 0.34
ACGCATGTAATTTATACACACATTCTTTTATATTTT [CACACA_site3708] | 7.67 ± 0.71
AAATTATTATCGTTAATATGTATATATGTGCCAAGT [TGCATGCA_negctrl_site557] | 8.06 ± 0.44
GCATTTTAATAATTATGTACATATATTATTCCTGGT [XGTACX_site3664] | 8.08 ± 0.64
TTCCATCAAAAAATGGGTACACATTATAGAAATATT [XGTACX_site8482] | 8.02 ± 0.014
TTGAAATTAAATGACATACACACTATATTATATATT [CACACA_site3135] | 7.51 ± 0.4
AAAAATAAAGTAAAAGCATGCTAGTATATGGAAAAT [TGCATGCA_site486] | 8.39 ± 0.52
CATATACGCAAACACACACACATATATATATATATA [CACACA_site501] | 9.58 ± 0.21
AGGTATATATATTTATGTACTTAAAATGAGAAAATA [XGTACX_site8337] | 7.93 ± 0.23
TATAATAATATTTATTGTACAATTAGGTTAATTCAT [XGTACX_site1986] | 7.83 ± 0.51
AATCTAATGTAATGCATACACACAACTATCCATCAA [CACACA_site535] | 8.23 ± 0.31
AATATACGAAATTGTGCACACATATATTTATGTATG [CACACA_site1510] | 10.5 ± 0.16
TAAAATGAAGGAATATGTACATAAATAAACATATAT [XGTACX_site6266] | 7.61 ± 0.62
CATATATGATATATTAGTACATATATATATATATAT [XGTACX_site1574] | 9.36 ± 0.49
CGATATAAAGATATTAGTACATATGCATGCTTGTCT [XGTACX_site8629] | 7.57 ± 0.74
AAACTCTCTTATATTAAACACACATATATATATGTA [CACACA_site8865] | 7.69 ± 0.62

Sequence | gcPBM binding intensity (ln)
AAAAACTTTTCAAGTAGTACCATATCTACAATAGTA [XGTACX_site8927] | 7.54 ± 0.43
AAACAAAAGATATATACACACTAAACATAAAAAAAA [CACACA_site6161] | 7.75 ± 0.56
CCTTTATTAAATAAATGTACATATTTTTGTGTTCTT [XGTACX_site2052] | 7.9 ± 0.47
GTTGGTAGGATGTATGGTACACGTAGTATTTTTCTT [XGTACX_site2] | 8.28 ± 0.13
AATAAAAATAAAATTGTATATTTTAAATGAAAATAA [CACACA_negctrl_site898] | 7.36 ± 0.51
CAAATTGGGAAATTTTGTACATATAATAAGGATACC [XGTACX_site7728] | 7.94 ± 0.51
GATAATGAATGATGCACACTAAAAATATTCTACAAC [CACACA_site3622] | 8.66 ± 0.16
CCGTATATTTTATATAGTACTCATCATATATTTTTA [XGTACX_site5560] | 7.69 ± 0.65
TTTTTAATTTTTTTTAAACACACACCGTACATTCAA [CACACA_site7925] | 8.17 ± 0.17
TATATATATACATATTGTACATATTACATGCTATTA [XGTACX_site1184] | 8.66 ± 0.42
TCATTTTAAATATGTGTGCACGTTATAATTTACACA | 10.5 ± 0.15
TATATACTTTATAAATGTACATATAATGTATTATTT [XGTACX_site7313] | 7.57 ± 0.36
ATAGATAAATTTACGGGTACTAAAATGGAATATGAA [XGTACX_site8637] | 8.19 ± 0.56
ATTCACATATTATCTTTACACACTATATATAAGTTT [CACACA_site8901] | 8.05 ± 0.76
TATTTTACAATAACAATACACACTATAATATATATA [CACACA_site1391] | 8.04 ± 0.43
TGTGTTCAGTATTGCACACACACAACCAAATAAAAA [CACACA_site379] | 10 ± 0.71
CATCAAAATGCTACATGTACATATATATAATATATT [XGTACX_site5207] | 7.91 ± 0.4
GAAATGAACAAGTGGGTGCGTATTAATTACATATTA | 9.785 ± 0.035
AATATATATAAATAAACACACACAAATATAATAAAA [CACACA_site9176] | 7.97 ± 0.59
AAAATTATATATTATAGTACATAAAATTTTGATATA [XGTACX_site994] | 7.63 ± 0.34
